This note sets out measurements from PMC12820563, “FoxP3 forms a head-to-head dimer in vivo and stabilizes its multimerization on adjacent microsatellites”.

The list shows a part of the results.

The target of this assay is T1, MBP-FoxP1dN (Mus musculus, UniProt P58462 326-579).
T1 sequence: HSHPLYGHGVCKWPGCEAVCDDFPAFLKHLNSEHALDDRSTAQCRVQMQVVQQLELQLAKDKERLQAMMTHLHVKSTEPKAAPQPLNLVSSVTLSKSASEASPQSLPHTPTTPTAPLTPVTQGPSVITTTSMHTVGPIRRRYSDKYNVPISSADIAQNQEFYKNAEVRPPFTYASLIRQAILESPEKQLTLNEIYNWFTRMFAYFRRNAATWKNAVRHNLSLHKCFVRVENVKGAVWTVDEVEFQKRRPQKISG
The assay can be described thus: PD-seq (MBP pull-down with sequencing); 20 mM Tris-HCl pH 7.5, 100 mM NaCl, 1.5 mM MgCl2, 0.4 uM protein, 0.1 uM dsDNA library, 30 min, room temperature, amylose pull-down; high values mean tight binding. The conditions noted are these: protein: recombinant; tags: His6-MBP; chain copies: 2; dsDNA, one strand shown. The gist of the method: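 His6-MBP-tagged mouse FoxP3 or FoxP1 fragment lacking the N-terminus, expressed in E. coli, was mixed at 0.4 µM with 0.1 µM Klenow-filled double-stranded degenerate DNA library. Incubation was 30 min at room temperature in Tris pH 7.5 buffer with NaCl and MgCl2. Complexes were caught on amylose resin and washed three times; DNA was released with proteinase K, PCR-barcoded and Illumina-sequenced. Binding is reads-per-million enrichment, pull-down over input, with replicates pooled.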
As to “GATGATTGTTCTCCCAGCTGATGAATTGAACCAGTCGAGTAAACAAATTTTCCTAATCTTTCTGTTCAAGCGCCATCTAC”, the binding signal was 0.814 RPM ratio (pull-down/input).

As for “GATGATTGTTCTCCCAGCTGATGAATTCTAGCGTTCGAGTAAACAAATTTTCCTAATCTTTCTGTTCAAGCGCCATCTAC”, the binding signal is 0.969 RPM ratio (pull-down/input). For “GATGATTGTTCTCCCAGCTGATGAATTGGGTTGTTCGAGTAAACAAATTTTCCTAATCTTTCTGTTCAAGCGCCATCTAC” the value was 1.07 RPM ratio (pull-down/input); for “GATGATTGTTCTCCCAGCTGATGAATTAGGGGCCTCGAGTAAACAAATTTTCCTAATCTTTCTGTTCAAGCGCCATCTAC”, 0.806 RPM ratio (pull-down/input).

In the case of “GATGATTGTTCTCCCAGCTGATGAATTCAGTATCTCGAGTAAACAAATTTTCCTAATCTTTCTGTTCAAGCGCCATCTAC”, the binding signal is 0.974 RPM ratio (pull-down/input). As for “GATGATTGTTCTCCCAGCTGATGAATTGGCAGATTCGAGTAAACAAATTTTCCTAATCTTTCTGTTCAAGCGCCATCTAC”, the figure is 0.9 RPM ratio (pull-down/input); as for “GATGATTGTTCTCCCAGCTGATGAATTTTCATTCTCGAGTAAACAAATTTTCCTAATCTTTCTGTTCAAGCGCCATCTAC”, 0.817 RPM ratio (pull-down/input). In the case of “GATGATTGTTCTCCCAGCTGATGAATTCGGTTTGTCGAGTAAACAAATTTTCCTAATCTTTCTGTTCAAGCGCCATCTAC”, the binding signal was 1.11 RPM ratio (pull-down/input). As for “GATGATTGTTCTCCCAGCTGATGAATTGGTGTTATCGAGTAAACAAATTTTCCTAATCTTTCTGTTCAAGCGCCATCTAC”, the figure is 1.9 RPM ratio (pull-down/input); as for “GATGATTGTTCTCCCAGCTGATGAATTCCGACCATCGAGTAAACAAATTTTCCTAATCTTTCTGTTCAAGCGCCATCTAC”, 0.869 RPM ratio (pull-down/input); as for “GATGATTGTTCTCCCAGCTGATGAATTACAGCTCTCGAGTAAACAAATTTTCCTAATCTTTCTGTTCAAGCGCCATCTAC”, 0.893 RPM ratio (pull-down/input). As for “GATGATTGTTCTCCCAGCTGATGAATTTAATGGATCGAGTAAACAAATTTTCCTAATCTTTCTGTTCAAGCGCCATCTAC”, the figure is 0.919 RPM ratio (pull-down/input).

“GATGATTGTTCTCCCAGCTGATGAATTGTCTACTTCGAGTAAACAAATTTTCCTAATCTTTCTGTTCAAGCGCCATCTAC”: the binding signal was 1.13 RPM ratio (pull-down/input).

Regarding “GATGATTGTTCTCCCAGCTGATGAATTATGTCTATCGAGTAAACAAATTTTCCTAATCTTTCTGTTCAAGCGCCATCTAC”, the binding signal was 1.08 RPM ratio (pull-down/input). As for “GATGATTGTTCTCCCAGCTGATGAATTAAGCTAGTCGAGTAAACAAATTTTCCTAATCTTTCTGTTCAAGCGCCATCTAC”, the binding signal is 0.804 RPM ratio (pull-down/input). As for “GATGATTGTTCTCCCAGCTGATGAATTACTTAGATCGAGTAAACAAATTTTCCTAATCTTTCTGTTCAAGCGCCATCTAC”, the figure is 1.17 RPM ratio (pull-down/input); as for “GATGATTGTTCTCCCAGCTGATGAATTAATTTGCTCGAGTAAACAAATTTTCCTAATCTTTCTGTTCAAGCGCCATCTAC”, 0.959 RPM ratio (pull-down/input). As for “GATGATTGTTCTCCCAGCTGATGAATTGCTGGGGTCGAGTAAACAAATTTTCCTAATCTTTCTGTTCAAGCGCCATCTAC”, the binding signal was 0.846 RPM ratio (pull-down/input). For the sequence “GATGATTGTTCTCCCAGCTGATGAATTATATTATTCGAGTAAACAAATTTTCCTAATCTTTCTGTTCAAGCGCCATCTAC”, the binding signal was 1.48 RPM ratio (pull-down/input). As for “GATGATTGTTCTCCCAGCTGATGAATTTTATACGTCGAGTAAACAAATTTTCCTAATCTTTCTGTTCAAGCGCCATCTAC”, the figure is 0.957 RPM ratio (pull-down/input); as for “GATGATTGTTCTCCCAGCTGATGAATTCTCTGTTTCGAGTAAACAAATTTTCCTAATCTTTCTGTTCAAGCGCCATCTAC”, 0.91 RPM ratio (pull-down/input); as for “GATGATTGTTCTCCCAGCTGATGAATTGTTCGATTCGAGTAAACAAATTTTCCTAATCTTTCTGTTCAAGCGCCATCTAC”, 1.06 RPM ratio (pull-down/input).

Consider “GATGATTGTTCTCCCAGCTGATGAATTTGCCGGGTCGAGTAAACAAATTTTCCTAATCTTTCTGTTCAAGCGCCATCTAC”, for which the binding signal is 0.784 RPM ratio (pull-down/input). On to “GATGATTGTTCTCCCAGCTGATGAATTATCAATCTCGAGTAAACAAATTTTCCTAATCTTTCTGTTCAAGCGCCATCTAC”, for which the binding signal is 1.02 RPM ratio (pull-down/input).

Consider “GATGATTGTTCTCCCAGCTGATGAATTCAAGTAGTCGAGTAAACAAATTTTCCTAATCTTTCTGTTCAAGCGCCATCTAC”, for which the binding signal was 0.874 RPM ratio (pull-down/input). As for “GATGATTGTTCTCCCAGCTGATGAATTTGTCACCTCGAGTAAACAAATTTTCCTAATCTTTCTGTTCAAGCGCCATCTAC”, the figure is 1.02 RPM ratio (pull-down/input); as for “GATGATTGTTCTCCCAGCTGATGAATTGAATGATTCGAGTAAACAAATTTTCCTAATCTTTCTGTTCAAGCGCCATCTAC”, 0.933 RPM ratio (pull-down/input). Take “GATGATTGTTCTCCCAGCTGATGAATTATCCTCGTCGAGTAAACAAATTTTCCTAATCTTTCTGTTCAAGCGCCATCTAC”: the binding signal is 0.914 RPM ratio (pull-down/input). Turning to “GATGATTGTTCTCCCAGCTGATGAATTTAAGGAATCGAGTAAACAAATTTTCCTAATCTTTCTGTTCAAGCGCCATCTAC”, the binding signal is 1.01 RPM ratio (pull-down/input).

With “GATGATTGTTCTCCCAGCTGATGAATTGAGTGGGTCGAGTAAACAAATTTTCCTAATCTTTCTGTTCAAGCGCCATCTAC”, the binding signal was 0.807 RPM ratio (pull-down/input). For “GATGATTGTTCTCCCAGCTGATGAATTCCGCGTGTCGAGTAAACAAATTTTCCTAATCTTTCTGTTCAAGCGCCATCTAC” the value was 0.837 RPM ratio (pull-down/input).
